# Several values for one entry are separate records, joined by “and”; a condition that tells them apart may be missing. Equal values may be shown once. Inconclusive means that the source gave no clear call. Such entries were picked first, then a sample of the others. Potencies beside an inconclusive call are fits to weak or partial responses and may not hold up. Activity calls are given as the source filed them. Calls follow the shape of the dose curve; as a rule, active = well fitted curve in the direction sought with a large enough effect; inconclusive = small, poorly fitted or top-dose-only effect, or another doubt; inactive = no such curve, though single readings can be large; an effect the other way counts as inactive or inconclusive.
# Columns and labels:
# [1] = Viability qHTS for spleen associated tyrosine kinase inhibitor (SYKi) naive MV4-11 cells (AID 1963823); also: nearly all actives have a fitted effect of over 40% in size
# How it was run: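 Seeding of 500 SYKi-naive MV4-11 cells per well onto pre-dispensed compounds preceded a 72 hr incubation at 37 C. Luminescent CellTiter-Glo signal, read after 10 min at room temperature, reflected viable cells.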
# [2] = Viability qHTS for spleen associated tyrosine kinase inhibitor (SYKi) drug resistant MV4-11 cells (AID 1963824); also: nearly all actives have a fitted effect of over 35% in size
# How it was run: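 CellTiter-Glo luminescence, read 10 min after reagent addition, reports viability after a 72 hr compound exposure. Cells are an MV4-11 line made resistant to SYK inhibition, seeded at 500 per well onto compound-containing plates.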
# [3] = Quantitative highthroughput screen to assess conditional lethalithy of NOMO1 cells grown in RPMI1640 with untreated serum (RPMI+s) (AID 1963876); also: nearly all actives have a fitted effect of over 35% in size
# How it was run: (§1)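 Each medium arm—HPLM with 10% dialyzed FBS, or RPMI1640 with 5 mM glucose and 10% untreated or dialyzed FBS—was screened against an 11-point, 3-fold compound titration for 48 h at 37 °C, with CellTiter-Glo luminescence as endpoint.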
# [4] = Quantitative highthroughput screen to assess conditional lethalithy of NOMO1 cells grown in RPMI1640 with dialyzed fetal bovine serum (RPMI+ds) (AID 1963877); also: nearly all actives have a fitted effect of over 30% in size
# How it was run: as §1
# [5] = Quantitative highthroughput screen to assess conditional lethalithy of NOMO1 cells grown in Human Plasma-Like Medium with dialyzed fetal bovine serum (HPLM+ds) (AID 1963878); also: nearly all actives have a fitted effect of over 35% in size
# How it was run: as §1
# [6] = Quantitative highthroughput screen to assess conditional lethalithy of P12 Ichikawa cells grown in RPMI1640 with untreated serum (RPMI+s) (AID 1963881); details: Potency: viability; also: nearly all actives have a fitted effect of over 35% in size
# How it was run: as §1
# [7] = Quantitative highthroughput screen to assess conditional lethalithy of SEM cells grown in RPMI1640 with dialyzed fetal bovine serum (RPMI+ds) (AID 1963884); also: nearly all actives have a fitted effect of over 35% in size
# How it was run: as §1
# [8] = Quantitative highthroughput screen to assess conditional lethalithy of P12 Ichikawa cells grown in RPMI1640 with dialyzed fetal bovine serum (RPMI+ds) (AID 1963880); details: Potency: P12-Ichikawa viability; also: nearly all actives have a fitted effect of over 35% in size
# How it was run: as §1
# [9] = Quantitative highthroughput screen to assess conditional lethalithy of SEM cells grown in Human Plasma-Like Medium with dialyzed fetal bovine serum (HPLM+ds) (AID 1963882); also: nearly all actives have a fitted effect of over 35% in size
# How it was run: as §1
# [10] = Cellular viability qHTS for adrenocortical cancer (ACC) cell line NCI-H295R (AID 1963990); details: CellTiter-Glo ATP luminescence, 48 h; activity change, negative = viability loss: at 46.1 µM (top of the series); also: nearly all actives have a fitted effect of over 60% in size
# How it was run: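 IC50 and maximal efficacy derive from four-parameter logistic modelling of titration curves, with reads scaled between DMSO-only wells (0%) and doxorubicin hydrochloride (100% inhibition). Compounds spanned up to 46 uM over 48 h.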
# [11] = Quantitative highthroughput screen to assess conditional lethalithy of P12 Ichikawa cells grown in Human Plasma-Like Medium with dialyzed fetal bovine serum (HPLM+ds) (AID 1963879); details: Potency: viability; also: nearly all actives have a fitted effect of over 35% in size
# How it was run: as §1
# Potency is read from the fitted curve at half-maximal effect; tags tell the direction and shape of the fitted curve.
compound,measurement,setting,value
C[C@]12CC[C@H](O)CC1=CC[C@@H]1[C@@H]2CC[C@]2(C)C(=O)CC[C@@H]12,Potency,[1],"inconclusive: 16.8 µM [cytotoxic, partial curve, poor fit] and inconclusive: 14.6 µM [cytotoxic, partial curve]"
same,Potency,[2],"inconclusive: 29.9 µM [cytotoxic, single point] and inconclusive: 18.6 µM [cytotoxic, partial curve]"
C=C(C)[C@@]12O[C@@H]1[C@@]1(C)C(=C[C@H]2O)CC[C@@H](O)[C@@H]1C,Potency,[1],inactive
same,Potency,[2],"inconclusive: 13 µM [cytotoxic, partial curve, poor fit]"
CC[C@@H]1C[C@H]2CC[C@H](O2)[C@H](C)C(=O)O[C@@H](C)C[C@@H]2CC[C@@H](O2)[C@@H](C)C(=O)O[C@H](C)C[C@H]2CC[C@H](O2)[C@H](C)C(=O)O[C@@H](C)C[C@@H]2CC[C@@H](O2)[C@@H](C)C(=O)O1,Potency,[1],active: 0.0343 µM
same,Potency,[2],active: 0.0385 µM
CCCCCn1cc(C(=O)c2cccc3ccccc23)c2ccccc21,Potency,[1],"inconclusive: 20.6 µM [cytotoxic, partial curve]"
same,Potency,[2],"inconclusive: 20.6 µM [cytotoxic, single point]"
CN(CC[C@H](N)CC(=O)N[C@H]1C=C[C@@H](n2ccc(N)nc2=O)O[C@@H]1C(=O)O)C(=N)N,viability (% of control),[1],inactive: 83.5% [at 9.25 µM]
same,Potency,[2],"inconclusive: 2.66 µM [cytotoxic, single point]"
Fc1ccc(C(OCCN2CCN(CCCc3ccccc3)CC2)c2ccc(F)cc2)cc1,Potency,[1],active: 5.96 µM and active: 6.61 µM
same,Potency,[2],active: 6.68 µM and active: 6.61 µM
same,Potency,[3],"inconclusive: 33.2 µM [cytotoxic, single point]"
same,Potency,[4],active: 20.9 µM
same,Potency,[5],active: 20.9 µM
same,Potency,[6],"inconclusive: 33.2 µM [cytotoxic, single point]"
same,Potency,[7],"inconclusive: 26.4 µM [cytotoxic, single point]"
C=CC(C)(C)c1[nH]c2cccc3c2c1C[C@@H]1[C@@H]3[C@@H](OC(C)=O)[C@H](C)CN1C,Potency,[1],"inconclusive: 6.4 µM [cytotoxic, single point]"
same,Potency,[2],active: 1.01 µM
CN1C(=O)CN=C(c2ccccc2)c2cc(Cl)ccc21,Potency,[1],"inconclusive: 23.7 µM [cytotoxic, single point]"
same,Potency,[2],"inconclusive: 18.8 µM [cytotoxic, partial curve, poor fit]"
CCN1CCN(C(=O)Cc2ccc(Nc3ncc(F)c(Nc4ccc(C(=O)Nc5ccccc5Cl)cc4)n3)cc2)CC1,Potency,[1],"inconclusive: 130 nM [cytotoxic, full curve] and active: 468 nM"
same,Potency,[2],"inconclusive: 164 nM [cytotoxic, full curve] and active: 525 nM"
same,Potency,[3],"inconclusive: 5.9 µM [cytotoxic, full curve]"
same,Potency,[4],"inconclusive: 4.18 µM [cytotoxic, full curve]"
same,Potency,[5],"inconclusive: 3.72 µM [cytotoxic, full curve]"
same,Potency,[8],"inconclusive: 5.9 µM [cytotoxic, full curve]"
same,Potency,[9],"inconclusive: 5.26 µM [cytotoxic, full curve]"
same,Potency,[10],active: 3.55 µM
CN(C)CCc1c[nH]c2ccccc12,Potency,[1],"inconclusive: 30.3 µM [cytotoxic, partial curve]"
same,Potency,[2],"inconclusive: 42.8 µM [cytotoxic, partial curve, poor fit]"
COc1ccc(C23CCC(=O)C=C2N(C)CC3)cc1OC (stereo not given),Potency,[1],"inconclusive: 6.51 µM [cytotoxic, single point]"
same,Potency,[2],active: 3.66 µM
CC(=O)O[C@@]12CO[C@@H]1C[C@H](O)[C@@]1(C)C(=O)[C@H](O)C3=C(C)[C@@H](O)C[C@@](O)([C@@H](OC(=O)c4ccccc4)[C@H]21)C3(C)C,Potency,[1],"inconclusive: 37.2 µM [cytotoxic, single point]"
same,Potency,[2],"inconclusive: 20.9 µM [cytotoxic, partial curve]"
COc1cc2c(cc1O)C1(C)CCC(O)C(C)(C)C1CC2=O (stereo not given),Potency,[1],"inconclusive: 4.11 µM [cytotoxic, single point]"
same,Potency,[2],inactive
C[C@]12CC[C@@H]3c4ccc(OC(=O)N(CCCl)CCCl)cc4CC[C@H]3[C@@H]1CC[C@@H]2O,Potency,[1],inactive
same,Potency,[2],inactive
CC[C@H]1C2CC3[C@@H]4N(C)c5ccccc5[C@]45C[C@@H]([C@H]2[C@H]5O)N3[C@@H]1O,Potency,[1],inactive
same,Potency,[2],"inconclusive: 4.53 µM [cytotoxic, partial curve, poor fit]"
O=C(O)COc1nc(Cl)c(Cl)cc1Cl,Potency,[1],inactive
same,Potency,[2],"inconclusive: 12.4 µM [cytotoxic, single point]"
CC(C)C1(OO)C=C2C(=O)CC3C(C)(C(=O)O)CCCC3(C)C2CC1 (stereo not given),Potency,[1],inactive
same,Potency,[2],"inconclusive: 14.3 µM [cytotoxic, single point]"
CC(Cc1ccccc1)NCCn1cnc2c1c(=O)n(C)c(=O)n2C (stereo not given),Potency,[1],"inconclusive: 30.3 µM [cytotoxic, single point]"
same,Potency,[2],"inconclusive: 30.3 µM [cytotoxic, single point]"
CC(C)OC(=O)c1ccnc2cc(C(OCCN3CCCCC3)c3ccccc3Cl)sc12 (stereo not given),Potency,[1],"inconclusive: 23.1 µM [cytotoxic, single point]"
same,Potency,[2],"inconclusive: 20.6 µM [cytotoxic, partial curve]"
O=C(O)P(=O)(O)O,Potency,[1],inactive
same,Potency,[2],"inconclusive: 0.0047 µM [rising, full curve, poor fit]"
CN1CCN(c2nc3ccccc3nc2Cl)CC1,Potency,[1],"inconclusive: 13 µM [cytotoxic, partial curve, poor fit]"
same,Potency,[2],"inconclusive: 16.4 µM [cytotoxic, partial curve, poor fit]"
CO[C@H]1[C@@H](O)[C@@H](C)O[C@@H](O[C@@H]2C=C3C(OC(C)=O)CC4(O)C(CC[C@]5(C)[C@@H](C6=CC(=O)OC6)CC[C@]45O)[C@@]3(C)CC2)[C@@H]1O (stereo not given in full),Potency,[1],active: 0.0685 µM
same,Potency,[2],active: 0.0769 µM
Cc1ccc(-n2nccn2)c(C(=O)N2CCN(c3nc4cc(Cl)ccc4o3)CCC2C)c1 (stereo not given),Potency,[1],"inconclusive: 8.2 µM [cytotoxic, partial curve]"
same,Potency,[2],active: 9.2 µM
CC[C@H]1C[C@@H]2CC[C@@H](O2)[C@@H](C)C(=O)O[C@H](CC)C[C@H]2CC[C@H](O2)[C@H](C)C(=O)O[C@@H](C)C[C@@H]2CC[C@@H](O2)[C@@H](C)C(=O)O[C@H](CC)C[C@H]2CC[C@H](O2)[C@H](C)C(=O)O1,Potency,[1],active: 0.0122 µM
same,Potency,[2],active: 0.0137 µM
CCOC(=O)Nc1ccc(NCc2ccc(F)cc2)cc1N,Potency,[1],"inconclusive: 8.2 µM [cytotoxic, partial curve]"
same,Potency,[2],active: 18.6 µM
same,Potency,[3],"inconclusive: 26.4 µM [cytotoxic, single point]"
same,Potency,[4],"inconclusive: 20.9 µM [cytotoxic, partial curve]"
same,Potency,[5],"inconclusive: 14.8 µM [cytotoxic, partial curve]"
same,Potency,[11],"inconclusive: 23.5 µM [cytotoxic, partial curve, poor fit]"
N#Cc1ccc(N2CCN(C(=O)COc3ccc4[nH]cc(CCN)c4c3)CC2)cc1,Potency,[1],"inconclusive: 2.59 µM [cytotoxic, full curve]"
same,Potency,[2],"inconclusive: 8.2 µM [cytotoxic, partial curve]"
COC(=O)[C@]12CCCC(C)(C)C1CCc1cc(C(C)C)c(O)c(O)c12 (stereo not given in full),Potency,[1],"inconclusive: 18 µM [cytotoxic, single point]"
same,Potency,[2],"inconclusive: 12.8 µM [cytotoxic, single point]"
CC(=O)O[C@H]1CC[C@@]2(CI)C(=CC[C@@H]3[C@@H]2CC[C@]2(C)C(=O)CC[C@@H]32)C1,Potency,[1],"inconclusive: 16.4 µM [cytotoxic, partial curve]"
same,Potency,[2],active: 20.6 µM
CCCCCn1cc(C(=O)C2C(C)(C)C2(C)C)c2ccccc21,Potency,[1],"inconclusive: 11.6 µM [cytotoxic, partial curve]"
same,Potency,[2],"inconclusive: 14.6 µM [cytotoxic, partial curve]"
COc1ccc2c(c1OC)CN1CCc3cc4c(cc3C1C2)OCO4 (stereo not given),Potency,[1],"inconclusive: 9.44 µM [cytotoxic, partial curve] and inconclusive: 8.2 µM [cytotoxic, partial curve]"
same,Potency,[2],"inconclusive: 10.6 µM [cytotoxic, partial curve]"
same,Potency,[3],active: 1.48 µM
same,Potency,[4],active: 1.66 µM
same,Potency,[10],"inconclusive: 16.4 µM [cytotoxic, partial curve, poor fit]"
CC(=O)O[C@H]1CN2CCC1CC2,Potency,[1],inactive
same,Potency,[2],inactive
CN(C)[C@@H]1C(=O)C(C(N)=O)=C(O)[C@@]2(O)C(=O)C3=C(O)c4c(O)cccc4[C@@](C)(O)[C@H]3[C@H](O)[C@@H]12,Potency,[1],inactive
same,Potency,[2],"inconclusive: 20.9 µM [cytotoxic, partial curve, poor fit]"
same,Potency,[3],"inconclusive: 33.2 µM [cytotoxic, single point]"
same,Potency,[5],"inconclusive: 26.4 µM [cytotoxic, single point]"
CN(C)NC(=O)CCC(=O)O,Potency,[1],inactive
same,Potency,[2],inactive
Cc1ncc2n1-c1ccc(Cl)cc1C(c1ccccc1F)=NC2,Potency,[1],"inconclusive: 29.9 µM [cytotoxic, single point]"
same,Potency,[2],"inconclusive: 23.7 µM [cytotoxic, partial curve, poor fit]"
C=CC(C)(C)c1[nH]c2c(CC=C(C)C)cc(CC=C(C)C)cc2c1C[C@@H]1NC(=O)[C@H](C)NC1=O,Potency,[1],inactive
same,Potency,[2],inactive

# From PubChem BioAssay (NCATS)
